Source: the supplement of paper PMC10320760
This is a noisy data set.

B1: Ydj1; a variant is named by its letters at X, in order (parent)
chain: MVKETKFYDILGVPVTATDVEIKKAYRKCALKYHPDKNPSEEAAEKFKEASAAYEILSDPEKRDIYDQFGEDGLSGAGGAGGFPGGGFGFGDDIFSQFFGAGGAQRPRGPQRGKDIKHEISASLEELYKGRTAKLALNKQILCKECEGRGGKKGAVKKCTSCNGQGIKFVTRQMGPMIQRFQTECDVCHGTGDIIDPKDRCKSCNGKKVENERKILEVHVEPGMKDGQRIVFKGEADQAPDVIPGDVVFIVSERPHKSFKRDGDDLVYEAEIDLLTAIAGGEFALEHVSGDWLKVGIVPGEVIAPGMRKVIEGKGMPIPKYGGYGNLIIKFTIKFPENHFTSEENLKKLEEILPPRIVPAIPKKATVDECVLADFDPAKYNRTRASRGGANYDSDEEEQGGEGVQCXXX

Variants of: B1
Test: enrichment factor, frequency at 37 °C / frequency at 25 °C (thermotolerance selection) (ratio); higher = more growth at 37 °C, higher likelihood of farnesylation
Details: with Saccharomyces cerevisiae ydj1Δ (yWS304); selective temperature 37 °C; reference temperature 25 °C
Method: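 Pooled library of all 8,000 Ydj1-CXXX C-terminal motif variants (native CASQ replaced by C + three variable residues, one codon per amino acid) expressed from a CEN plasmid in S. cerevisiae ydj1Δ (yWS304). The library was grown in SC-Ura liquid to A600 ~2 (~8 generations) at permissive 25 °C or selective 37 °C. Reads from 8 and 7 replicates were pooled and variants counted by NGS. Enrichment factor = frequency at 37 °C / frequency at 25 °C, with a +1 correction; it reports Ydj1-dependent thermotolerance, used as a read-out of farnesylation by yeast FTase.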

Variant | enrichment factor
YDE | 0.197
YDG | 0.282
YDA | 0.159
YDL | 0.218
YDD | 0.178
YDC | 0.218
YDI | 0.13
YDK | 0.151
YDF | 0.303
YDH | 0.198
ACV | 0.707
ACY | 1.86
ACR | 0.242
ACT | 0.424
ACS | 0.91
ACW | 1
LDC | 0.463
LDG | 0.129
LDA | 0.186
LDD | 0.156
LDE | 0.127
LDF | 0.0991
LDH | 0.876
LDK | 0.165

Variant | enrichment factor
LDI | 0.15
LDL | 0.157
WDH | 0.743
WDF | 1.98
WDA | 1.16
WDE | 0.282
WDL | 1.64
WDC | 0.7
WDD | 0.25
WDK | 0.33
WDI | 0.963
WDG | 1.48
IDC | 0.625
IDD | 0.129
IDL | 0.107
IDF | 0.164
IDE | 0.161
IDH | 1.07
IDI | 0.169
IDG | 0.146
IDK | 0.196
IDA | 0.182
FDH | 0.281
FDF | 0.645

Variant | enrichment factor
FDD | 0.199
FDL | 0.224
FDM | 0.349
FDK | 0.0876
FDA | 0.151
FDI | 0.521
FDC | 0.224
FDE | 0.173
FDG | 0.434
FCW | 0.599
FCV | 2.32
FCR | 0.175
FCS | 0.901
FCY | 1.01
FCT | 1.26
MDK | 0.161
MDE | 0.165
MDF | 0.336
MDA | 0.204
MDG | 0.192
MDH | 0.439
MDI | 0.141
MDD | 0.182
MDL | 0.172

Variant | enrichment factor
MDC | 0.147
CCW | 3.47
CCR | 0.262
CCV | 0.221
CCS | 1.02
CCQ | 0.452
CCT | 0.621
CCY | 0.252
LCY | 0.499
LCW | 0.254
LCT | 0.642
LCV | 0.356
LCS | 0.588
LCR | 0.181
ECS | 0.434
ECV | 0.491
ECY | 0.676
ECT | 0.938
ECR | 0.259
ECW | 0.364
TDE | 0.127
TDF | 0.119
TDC | 0.299
TDH | 0.787

Variant | enrichment factor
TDD | 0.199
TDL | 0.172
TDA | 0.21
TDG | 0.0884
TDK | 0.0897
TDI | 0.189
EDH | 0.19
EDK | 0.108
EDD | 0.186
EDG | 0.1
EDC | 0.167
EDA | 0.201
EDE | 0.129
EDL | 0.171
EDF | 0.207
EDI | 0.145
EDM | 0.346
YCV | 3.85
YCQ | 2.21
YCR | 0.166
YCW | 0.768
YCS | 3.09
YCT | 3.64
YCY | 2.56

Variant | enrichment factor
GCV | 0.931
GCR | 0.171
GCY | 1.37
GCT | 1.18
GCW | 0.266
GCS | 1.59
GDA | 0.144
GDF | 0.165
GDL | 0.0939
GDG | 0.0837
GDI | 0.111
GDC | 0.0958
GDD | 0.164
GDK | 0.155
GDH | 0.17
GDM | 0.145
GDE | 0.115
KDD | 0.122
KDG | 0.224
KDI | 0.162
KDC | 0.197
KDL | 0.157
KDH | 0.725
KDK | 0.1

Variant | enrichment factor
KDE | 0.152
KDF | 0.149
KDA | 0.201
RCQ | 0.853
RCY | 1.18
RCS | 0.772
RCT | 0.274
RCW | 0.294
RCV | 0.493
RCR | 0.131
TCV | 0.643
TCW | 1.14
TCR | 0.282
TCQ | 0.719
TCT | 0.869
TCY | 0.792
TCS | 0.624
WCY | 0.724
WCV | 0.901
WCT | 0.136
WCR | 0.287
WCQ | 1.22
WCS | 1.8
WCW | 0.394

Variant | enrichment factor
RDD | 0.163
RDF | 0.173
RDI | 0.137
RDA | 0.129
RDK | 0.135
RDE | 0.0987
RDG | 0.265
RDC | 0.476
RDL | 0.194
RDH | 1.33
ICT | 1.38
ICS | 1.1
ICW | 0.166
ICY | 0.851
ICR | 0.18
ICV | 0.837
VDC | 1.15
VDL | 0.185
VDH | 2.15
VDF | 1.03
VDK | 0.196
VDD | 0.246
VDI | 0.223
VDG | 0.248

Variant | enrichment factor
VDA | 0.408
VDE | 0.0846
CDF | 0.306
CDG | 0.156
CDD | 0.201
CDL | 0.216
CDH | 1.93
CDI | 0.504
CDK | 0.182
CDE | 0.207
CDC | 0.515
CDA | 0.183
HDE | 0.171
HDL | 0.196
HDI | 0.216
HDK | 0.105
HDC | 0.238
HDH | 0.629
HDG | 0.172
HDD | 0.0997
HDF | 0.207
HDA | 0.185
ADC | 0.465
ADK | 0.205

Variant | enrichment factor
ADH | 1.43
ADG | 0.117
ADA | 0.169
ADI | 0.231
ADD | 0.229
ADL | 0.249
ADF | 0.247
ADE | 0.185
QDK | 0.161
QDI | 0.115
QDF | 0.136
QDL | 0.115
QDD | 0.102
QDH | 0.387
QDE | 0.111
QDC | 0.22
QDA | 0.143
QDG | 0.139
PDD | 0.179
PDG | 0.201
PDH | 0.37
PDA | 0.154
PDC | 0.16
PDF | 0.324

Variant | enrichment factor
PDK | 0.292
PDE | 0.24
PDI | 0.173
PDL | 0.118
DDE | 0.0864
DDA | 0.116
DDF | 0.247
DDG | 0.224
DDD | 0.164
DDK | 0.271
DDC | 0.121
DDL | 0.14
DDH | 0.133
DDI | 0.209
NDF | 0.182
NDC | 0.2
NDA | 0.236
NDD | 0.123
NDI | 0.243
NDL | 0.107
NDG | 0.079
NDE | 0.165
NDH | 0.369
NDK | 0.226

Variant | enrichment factor
VCW | 3.41
VCQ | 1.56
VCY | 2.62
VCS | 0.846
VCV | 1.12
VCR | 0.659
VCT | 2.05
DCR | 0.143
DCV | 0.774
DCW | 0.225
DCY | 1.18
DCQ | 1.39
DCS | 1.71
DCT | 1.28
MCT | 1.36
MCW | 0.823
MCR | 0.169
MCY | 1.77
MCV | 0.863
MCS | 1.66
PCW | 0.727
PCS | 0.632
PCQ | 1.04
PCT | 1.46

Variant | enrichment factor
PCV | 1.25
PCY | 0.679
PCR | 0.17
NCW | 0.259
NCT | 1.24
NCS | 0.521
NCY | 0.475
NCR | 0.103
NCQ | 0.745
NCV | 0.369
SCS | 0.842
SCW | 0.303
SCY | 1.04
SCT | 0.409
SCR | 0.185
SCQ | 0.556
SCV | 0.342
QCW | 0.393
QCT | 1.05
QCS | 0.901
QCV | 0.431
QCR | 0.259
QCQ | 0.319
QCY | 0.526

Variant | enrichment factor
SDC | 0.143
SDA | 0.11
SDE | 0.132
SDK | 0.124
SDG | 0.165
SDF | 0.211
SDL | 0.128
SDI | 0.125
SDH | 0.262
SDD | 0.199
HCS | 0.312
HCW | 0.431
HCR | 0.166
HCV | 0.404
HCY | 2.73
HCT | 0.796
KCY | 0.793
KCW | 0.149
KCR | 0.133
KCV | 0.258
KCT | 0.655
KCS | 0.549
